Holding throughout (assay type): cell-based
One assay deals with E. coli DH5α. Nature of the assay: Antibacterial activity: MIC and growth curve against E. coli DH5α in 96-well plate. The conditions noted are these: minimal inhibitory concentration against E. coli DH5α, 5×10^5 CFU/mL, 37° C., judged after 8 h. The method, then:
1. E. coli DH5α was exemplified. E. coli DH5α was streaked and cultured on LB solid medium. Then, a typical clone was picked and inoculated into common LB liquid medium, cultured at 37° C. with shaking at 185 rpm until the logarithmic growth phase was reached (OD600 of about 0.5). The bacterial culture was centrifuged at 4000×g for 3 min, the supernatant was discarded, and the thalli were resuspended with fresh LB medium.
2. The above-mentioned bacterial suspension was diluted and inoculated into a 96-well plate with the total volume of 100 μL per well and a bacterial count of 5×10^5 CFU/mL.
3. The recombinant protein hF VII-EGF1 was added to the above-mentioned wells with the final protein concentration in the well of the highest protein concentration being 50 μg/mL. Basing on this final concentration, a two-fold serial dilution was performed till a protein concentration gradient consisting of 50, 25, and 12.5 μg/mL was set up. Three parallel wells were set up for each concentration in the gradient.
4. The above-mentioned 96-well plate was placed and cultured at 37° C. in shaking incubator shaking at 175 rpm. Samples were taken every 30 min, the absorbance values were determined at 600 nm wavelength under a ultra violet spectrophotometer, and an inhibition curve was plotted. […] The minimal inhibitory concentration MIC is defined as the lowest concentration of the recombinant protein at which there is no growth of the bacteria.
According to the experimental procedures in Example 14, the minimal inhibitory concentrations (MIC, μg/mL) of the other human-originated EGF domain proteins (PRT2 to PRT1498 in Table 1) for E. coli DH5α were determined.

A further assay relates to E. coli BL21. Nature of the assay: MIC against Gram-negative bacteria: E. coli BL21. The conditions noted are these: E. coli BL21, 10 h cultivation at 37° C. The method, then:
(§1) 1. Gram-negative bacteria, such as E. coli BL21, Pseudomonas aeruginosa, Klebsiella pneumonia, Enterobacter cloacae, Aeromonas hydrophila, Citrobacter diversus, Moraxella catarrhalis, Proteus mirabilis, Proteus vulgaris, Serratia marcescens, etc were streaked on solid LB medium and cultured respectively. Then, typical clones were picked, inoculated into common liquid LB medium respectively, and cultured at 37° C. with shaking at 185 rpm until the McFarland specific turbidity was 0.5. The bacterial culture of each of Gram-negative bacteria was centrifuged at 4000×g for 3 min, the supernatant was discarded, and the thalli were resuspended with fresh LB medium.
(§2) 2. The above-mentioned bacterial suspensions were diluted and inoculated into 96-well plates with the final concentration of the bacterial suspension being 5×10^5 CFU/mL per well.
(§3) 3. Each of the purified human-originated EGF domain proteins (PRT1 to PRT1498 in Table 1) was added to each of the above wells and subjected to two-fold serial dilution in concentration. Three parallel wells were set up for each concentration in the gradient.
(§4) 4. The above-mentioned 96-well plates were placed and cultured at 37° C. in shaking incubator shaking at 175 rpm. […] The minimal inhibitory concentration MIC is defined as the lowest concentration of the recombinant protein at which there is no growth of the bacteria.

Another assay relates to Pseudomonas aeruginosa. Nature of the assay: MIC against Gram-negative bacteria: Pseudomonas aeruginosa. The conditions noted are these: 10 h cultivation at 37° C.; for MIC / MIC (μg/mL) P. aeruginosa: P. aeruginosa. On the procedure:
as §1, §2, §3, §4

The subject of the next assay is Klebsiella pneumonia. Put plainly: MIC against Gram-negative bacteria: Klebsiella pneumonia. The conditions noted are these: 10 h cultivation at 37° C.; for MIC / MIC (μg/mL) K. pneumonia: K. pneumonia. On the procedure: as §1, §2, §3, §4
The next assay has as its system Enterobacter cloacae. Put plainly: MIC against Gram-negative bacteria: Enterobacter cloacae. The conditions noted are these: 10 h cultivation at 37° C.; for MIC / MIC (μg/mL) E. cloacae: E. cloacae. On the procedure: as §1, §2, §3, §4
A further assay relates to Aeromonas hydrophila. Nature of the assay: MIC against Gram-negative bacteria: Aeromonas hydrophila. The conditions noted are these: 10 h cultivation at 37° C.; for MIC / MIC (μg/mL) A. hydrophila: A. hydrophila. The method, then:
as §1, §2, §3, §4

The next assay has as its system Citrobacter diversus. Put plainly: MIC against Gram-negative bacteria: Citrobacter diversus. Particulars: 10 h cultivation at 37° C.; for MIC / MIC (μg/mL) C. diversus: C. diversus. The method, then:
as §1, §2, §3, §4

The test system of another assay is Moraxella catarrhalis. Put plainly: MIC against Gram-negative bacteria: Moraxella catarrhalis. The conditions noted are these: 10 h cultivation at 37° C.; for MIC / MIC (μg/mL) M. catarrhalis: M. catarrhalis. On the procedure: as §1, §2, §3, §4
In a further assay the test system is Proteus mirabilis. Nature of the assay: MIC against Gram-negative bacteria: Proteus mirabilis. Particulars: 10 h cultivation at 37° C.; for MIC / MIC (μg/mL) P. mirabilis: P. mirabilis. On the procedure: as §1, §2, §3, §4
The next assay relates to Proteus vulgaris. Nature of the assay: MIC against Gram-negative bacteria: Proteus vulgaris. The conditions noted are these: 10 h cultivation at 37° C.; for MIC / MIC (μg/mL) P. vulgaris: P. vulgaris. On the procedure: as §1, §2, §3, §4
For another assay, the system named is Serratia marcescens. Put plainly: MIC against Gram-negative bacteria: Serratia marcescens. The conditions noted are these: 10 h cultivation at 37° C.; for MIC / MIC (μg/mL) S. marcescens: S. marcescens. On the procedure: as §1, §2, §3, §4

One may read the MIC as the smallest concentration in the dilution series that meets the test's criterion for growth inhibition. Read a low MIC as greater potency.

Turning to “PRT303 (DMDECKEPDVCKHGQCINTDGSYRCECPFGYILAGNECV; listed as Homo sapiens)”, the minimal inhibitory concentration (MIC) worked out at 50 µg/mL against E. coli DH5α; 25 µg/mL against E. coli BL21 (5×10^5 CFU/mL); 12.5 µg/mL against Pseudomonas aeruginosa (5×10^5 CFU/mL); 25 µg/mL with Klebsiella pneumonia (5×10^5 CFU/mL); 50 µg/mL against Enterobacter cloacae (5×10^5 CFU/mL); 12.5 µg/mL in the assay on Aeromonas hydrophila (5×10^5 CFU/mL). In addition, the MIC stood at 50 µg/mL with Citrobacter diversus (5×10^5 CFU/mL); 12.5 µg/mL against Moraxella catarrhalis (5×10^5 CFU/mL); 50 µg/mL against Proteus mirabilis (5×10^5 CFU/mL); 100 µg/mL with Proteus vulgaris (5×10^5 CFU/mL); 50 µg/mL against Serratia marcescens (5×10^5 CFU/mL).

As to “PRT852 (SWGQCQPVCQPRCKHGECIGPNKCKCHPGYAGKTCN; listed as Homo sapiens)”, the MIC against E. coli DH5α was determined as 12.5 µg/mL. Also, in the assay on E. coli BL21 (5×10^5 CFU/mL), the “MIC (μg/mL) E. coli BL21” value stood at 25 µg/mL. Also, the “MIC (μg/mL) P. aeruginosa” value in the assay on Pseudomonas aeruginosa (5×10^5 CFU/mL) was 12.5 µg/mL. In the assay on Klebsiella pneumonia (5×10^5 CFU/mL), the “MIC (μg/mL) K. pneumonia” value was found to be 25 µg/mL. The “MIC (μg/mL) E. cloacae” value in the assay on Enterobacter cloacae (5×10^5 CFU/mL) is 50 µg/mL. Moreover, in the assay with Aeromonas hydrophila (5×10^5 CFU/mL), the “MIC (μg/mL) A. hydrophila” value was found to be 12.5 µg/mL. The “MIC (μg/mL) C. diversus” value against Citrobacter diversus (5×10^5 CFU/mL) turned out to be 50 µg/mL. For the same substance, the “MIC (μg/mL) M. catarrhalis” value against Moraxella catarrhalis (5×10^5 CFU/mL) turned out to be 12.5 µg/mL. In addition, the “MIC (μg/mL) P. mirabilis” value with Proteus mirabilis (5×10^5 CFU/mL) was 50 µg/mL. Besides, in the assay on Proteus vulgaris (5×10^5 CFU/mL), the “MIC (μg/mL) P. vulgaris” value was 12.5 µg/mL. For the same substance, the “MIC (μg/mL) S. marcescens” value in the assay on Serratia marcescens (5×10^5 CFU/mL) was 50 µg/mL.

In turn, “PRT1435 (DIDECRNGACVPNSICVNTLGSYRCGPCKPGYTGDQIRGCK; listed as Homo sapiens)” registered an MIC against E. coli DH5α of 50 µg/mL. Moreover, the “MIC against E. coli BL21” value against E. coli BL21 (5×10^5 CFU/mL) turned out to be 25 µg/mL. In addition, in the assay on Pseudomonas aeruginosa (Pseudomonas aeruginosa, 5×10^5 CFU/mL), the “MIC against P. aeruginosa” value amounted to 12.5 µg/mL. Further, the “MIC against K. pneumonia” value in the assay with Klebsiella pneumonia (Klebsiella pneumonia, 5×10^5 CFU/mL) was determined as 25 µg/mL. Besides, the “MIC against E. cloacae” value against Enterobacter cloacae (Enterobacter cloacae, 5×10^5 CFU/mL) is 50 µg/mL. In the assay with Aeromonas hydrophila (Aeromonas hydrophila, 5×10^5 CFU/mL), the “MIC against A. hydrophila” value was determined as 25 µg/mL. In addition, the “MIC against C. diversus” value against Citrobacter diversus (Citrobacter diversus, 5×10^5 CFU/mL) worked out at 12.5 µg/mL. The “MIC against M. catarrhalis” value with Moraxella catarrhalis (Moraxella catarrhalis, 5×10^5 CFU/mL) is 50 µg/mL. Also, the “MIC against P. mirabilis” value in the assay on Proteus mirabilis (Proteus mirabilis, 5×10^5 CFU/mL) came to 25 µg/mL. Further, in the assay on Proteus vulgaris (Proteus vulgaris, 5×10^5 CFU/mL), the “MIC against P. vulgaris” value worked out at 12.5 µg/mL. The “MIC against S. marcescens” value against Serratia marcescens (Serratia marcescens, 5×10^5 CFU/mL) was determined as 12.5 µg/mL.

Regarding “PRT931 (DIDECASNPCRKGATCINGVNGFRCICPEGPHHPSCY; listed as Homo sapiens)”, the MIC with E. coli DH5α turned out to be 12.5 µg/mL; with E. coli BL21, 25 µg/mL; in the assay on Pseudomonas aeruginosa it was 50 µg/mL; in the assay with Klebsiella pneumonia, 25 µg/mL; against Enterobacter cloacae, 12.5 µg/mL; against Aeromonas hydrophila it was 25 µg/mL. The MIC against Citrobacter diversus came out at 50 µg/mL; against Moraxella catarrhalis, 12.5 µg/mL; against Proteus mirabilis, 50 µg/mL; with Proteus vulgaris it was 25 µg/mL; in the assay on Serratia marcescens it was 12.5 µg/mL.

For “PRT208 (CDVQKKCHGHGVCNSNKNCHCENGWAPPNCETKGYGGSVDSGPTYNEMNTALRDG; listed as Homo sapiens)”, in the assay with E. coli DH5α, the minimum inhibitory concentration (MIC) stood at 25 µg/mL. For the same substance, the “MIC (μg/mL) E. coli BL21” value with E. coli BL21 (5×10^5 CFU/mL) amounted to 50 µg/mL. In the assay on Pseudomonas aeruginosa (5×10^5 CFU/mL), the “MIC (μg/mL) P. aeruginosa” value turned out to be 25 µg/mL. Also, the “MIC (μg/mL) K. pneumonia” value against Klebsiella pneumonia (5×10^5 CFU/mL) turned out to be 12.5 µg/mL. In addition, in the assay with Enterobacter cloacae (5×10^5 CFU/mL), the “MIC (μg/mL) E. cloacae” value came to 25 µg/mL. Besides, in the assay on Aeromonas hydrophila (5×10^5 CFU/mL), the “MIC (μg/mL) A. hydrophila” value is 12.5 µg/mL. Also, the “MIC (μg/mL) C. diversus” value with Citrobacter diversus (5×10^5 CFU/mL) worked out at 25 µg/mL. The “MIC (μg/mL) M. catarrhalis” value against Moraxella catarrhalis (5×10^5 CFU/mL) amounted to 12.5 µg/mL. Moreover, the “MIC (μg/mL) P. mirabilis” value in the assay on Proteus mirabilis (5×10^5 CFU/mL) was found to be 25 µg/mL. For the same substance, the “MIC (μg/mL) P. vulgaris” value in the assay with Proteus vulgaris (5×10^5 CFU/mL) was 12.5 µg/mL. For the same substance, the “MIC (μg/mL) S. marcescens” value against Serratia marcescens (5×10^5 CFU/mL) was 25 µg/mL.

Values taken from patent US9833497B2, “Human originated EGF domain proteins and use of the same” (CHENGDU SOURCEBIO LIMITED-LIABILITY COMPANY, priority 2013, dated 2017).
